From paper PMC4165372, “Nutritional status modulates box C/D snoRNP biogenesis by regulated subcellular relocalization of the R2TP complex” (Genome Biology, 2014)
No constants are given. Whether binding was seen depends on the method and setting. In cells and extracts the contact can be indirect. Some results given as binding are weak or reduced against the parent protein; the word gives no strength. Sequences can lack the tags named with a protein.

B1: Nop1, P15646 1-327 (protein)
chain: MSFRPGSRGGSRGGSRGGFGGRGGSRGGARGGSRGGFGGRGGSRGGARGGSRGGFGGRGGSRGGARGGSRGGRGGAAGGARGGAKVVIEPHRHAGVYIARGKEDLLVTKNMAPGESVYGEKRISVEEPSKEDGVPPTKVEYRVWNPFRSKLAAGIMGGLDELFIAPGKKVLYLGAASGTSVSHVSDVVGPEGVVYAVEFSHRPGRELISMAKKRPNIIPIIEDARHPQKYRMLIGMVDCVFADVAQPDQARIIALNSHMFLKDQGGVVISIKANCIDSTVDAETVFAREVQKLREERIKPLEQLTLEPYERDHCIVVGRYMRSGLKK
B2: Tah1 (protein, UniProt P25638 1-111)
chain: MSQFEKQKEQGNSLFKQGLYREAVHCYDQLITAQPQNPVGYSNKAMALIKLGEYTQAIQMCQQGLRYTSTAEHVAIRSKLQYRLELAQGAVGSVQIPVVEVDELPEGYDRS

Legend:
[1] = molecular target: T1, Nop58-FLAG (S. cerevisiae), Q12499; test: co-IP; FLAG pulldown: anti-FLAG (M2) beads on soluble lysate of endogenously C-terminal 3xFLAG-tagged yeast strains, log phase; buffer H with 0.1 M KCl, washes with 0.3 or 0.5 M KCl, FLAG peptide elution; Western blot or silver stain; also lysate treated with RNase A or DNase I, pih1Δ or tah1Δ background, rapamycin, Nup53 or Nup53-CΔ overexpression, bead-bound Nop58-FLAG complex with or without 4 mM ATP; settings: remark: other sources report otherwise
T1 chain: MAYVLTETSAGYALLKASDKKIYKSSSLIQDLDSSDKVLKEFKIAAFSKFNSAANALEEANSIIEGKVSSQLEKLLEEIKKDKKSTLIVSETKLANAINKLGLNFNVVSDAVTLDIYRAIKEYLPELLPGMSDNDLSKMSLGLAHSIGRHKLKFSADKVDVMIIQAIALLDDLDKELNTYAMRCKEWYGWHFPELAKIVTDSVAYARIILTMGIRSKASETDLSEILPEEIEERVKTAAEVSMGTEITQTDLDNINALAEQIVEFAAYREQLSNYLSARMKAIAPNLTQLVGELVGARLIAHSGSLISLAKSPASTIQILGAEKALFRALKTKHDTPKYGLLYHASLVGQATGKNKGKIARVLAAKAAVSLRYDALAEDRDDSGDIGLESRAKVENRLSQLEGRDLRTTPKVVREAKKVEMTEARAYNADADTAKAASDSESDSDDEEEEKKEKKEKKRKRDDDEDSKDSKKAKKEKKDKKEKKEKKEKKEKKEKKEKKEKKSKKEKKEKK

[2] = molecular target: T2, Nop58(1–511)-FLAG (S. cerevisiae), Q12499; test: co-IP; FLAG pulldown: anti-FLAG beads on lysate of yeast overexpressing p416GAL Nop58-FLAG subdomain constructs after galactose induction (6 h, 30°C); Western blot; settings: remark: other sources report otherwise
T2 chain: T1 chain

[3] = molecular target: T3, Nop56-FLAG (S. cerevisiae) (UniProt Q12460); test: co-IP; FLAG pulldown: anti-FLAG (M2) beads on soluble lysate of endogenously C-terminal 3xFLAG-tagged yeast strains, log phase; buffer H with 0.1 M KCl, washes with 0.3 or 0.5 M KCl, FLAG peptide elution; Western blot or silver stain; also lysate treated with RNase A or DNase I, pih1Δ or tah1Δ background, rapamycin, Nup53 or Nup53-CΔ overexpression, bead-bound Nop58-FLAG complex with or without 4 mM ATP
T3 sequence: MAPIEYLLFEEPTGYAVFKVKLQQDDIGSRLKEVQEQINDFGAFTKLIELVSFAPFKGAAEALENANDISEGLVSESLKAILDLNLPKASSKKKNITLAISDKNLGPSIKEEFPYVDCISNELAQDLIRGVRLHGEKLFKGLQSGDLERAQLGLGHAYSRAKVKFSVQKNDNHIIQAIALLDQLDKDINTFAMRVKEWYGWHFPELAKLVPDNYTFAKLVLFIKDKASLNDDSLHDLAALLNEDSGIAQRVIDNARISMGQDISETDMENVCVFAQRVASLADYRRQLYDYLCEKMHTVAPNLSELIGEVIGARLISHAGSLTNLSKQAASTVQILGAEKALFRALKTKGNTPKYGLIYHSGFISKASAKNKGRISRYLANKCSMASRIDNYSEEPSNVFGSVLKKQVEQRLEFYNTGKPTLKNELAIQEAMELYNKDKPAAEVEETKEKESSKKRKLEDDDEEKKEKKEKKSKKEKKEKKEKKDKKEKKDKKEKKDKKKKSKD

[4] = molecular target: T4, Nop1-FLAG (S. cerevisiae) (UniProt P15646); test: as above
T4 sequence: B1 chain

[5] = molecular target: T5, Snu13-FLAG (S. cerevisiae) (UniProt P39990); test: as above
T5 sequence: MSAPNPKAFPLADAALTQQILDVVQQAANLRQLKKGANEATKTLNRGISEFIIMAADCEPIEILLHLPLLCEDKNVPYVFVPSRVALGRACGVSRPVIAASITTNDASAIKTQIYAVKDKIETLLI

| Binder | binding [1] | binding [2] | binding [3] | binding [4] | binding [5] |
| --- | --- | --- | --- | --- | --- |
| B1 | binds | binds | – | – | – |
| B2 | – | – | no binding | no binding | no binding |
